Our source for the binding signal values is PMC6451091.

Common to all, as to conditions: 20 mM HEPES pH 7.9, 100 mM NaCl, 1 mM DTT, 0.2 mg/mL BSA, 0.02% Triton X-100, 2% milk, 0.4 mg/mL salmon testes DNA; 1 h; temperature not stated; high values mean tight binding; double strand, one strand shown; sequences stand for … in GCCTAGCAC…GTGCTAGGTCTTGATTCGCTTGACGCTGCTG
One assay addresses PU.1 (IVT) (UniProt P17947). As to the kind of experiment: protein-binding microarray (PBM).
Assay [1] has as its target PU.1 (endogenous, THP-1 nuclear extract) (UniProt P17947). Nature of the assay: nuclear extract protein-binding microarray (nextPBM).
The target of assay [2] is T1, FLI1 (endogenous, THP-1 nuclear extract) (UniProt Q01543).
T1 sequence: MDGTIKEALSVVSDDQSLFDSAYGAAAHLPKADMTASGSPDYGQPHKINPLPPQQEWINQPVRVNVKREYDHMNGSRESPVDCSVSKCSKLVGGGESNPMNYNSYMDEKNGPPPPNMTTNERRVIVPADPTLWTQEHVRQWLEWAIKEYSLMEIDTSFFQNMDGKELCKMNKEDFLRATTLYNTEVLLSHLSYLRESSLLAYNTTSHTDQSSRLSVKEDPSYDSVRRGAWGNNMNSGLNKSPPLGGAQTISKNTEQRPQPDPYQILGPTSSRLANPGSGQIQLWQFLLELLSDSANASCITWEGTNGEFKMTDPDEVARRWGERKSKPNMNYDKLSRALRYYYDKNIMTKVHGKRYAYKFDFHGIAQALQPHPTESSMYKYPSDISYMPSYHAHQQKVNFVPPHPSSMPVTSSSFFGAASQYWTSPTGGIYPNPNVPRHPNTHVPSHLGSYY
The assay is described as above.

The list shows a part of the results. For part of these data: At the low end of the ranking the order means little. For part of these data: Measured with an extract: partners may take part in the binding.

With TTATAGAGGAAGTGTGAAAT, the binding signal came out at 4.15 z-score in the assay with PU.1 (IVT), 4.5 z-score in assay [1] and 2.49 z-score in assay [2].

AGAGAGAGGAAGTCCCAAAG: the figures for the binding signal (in the assay with PU.1 (IVT); in assay [1]; in assay [2]) were 3.45 z-score, 3.65 z-score and 2.11 z-score, respectively.

Turning to AGCAAAGGGAAGTGGGGAGA, the binding signal with PU.1 (IVT) came to 2.95 z-score; in assay [1], 2.81 z-score; in assay [2], 1.73 z-score.

For GAAAAGGGGAAGTCAAGATT, the results for the binding signal (with PU.1 (IVT); in assay [1]; in assay [2]) were 7.55 z-score, 7.14 z-score and 3 z-score, respectively.

As for AGAAAAGGGAAGTGAGGTAC, the binding signal with PU.1 (IVT) is 7.13 z-score; in assay [1], 7.13 z-score; in assay [2] it was 3 z-score.

Turning to GAAAAGAGGAAGTCTTGCAT, the results for the binding signal (in the assay with PU.1 (IVT); in assay [1]; in assay [2]) were 8.22 z-score, 7.31 z-score and 3.81 z-score, respectively.

Turning to CAAAAACGGAAGTGGATGCT, the values for the binding signal (in the assay with PU.1 (IVT); in assay [1]; in assay [2]) were 6.22 z-score, 6.66 z-score and 4.67 z-score, respectively.

Take CAAAAAGGGTAGTGGATGCT: the binding signal in the assay with PU.1 (IVT) came out at 1.25 z-score; in assay [1], 1.29 z-score; in assay [2] it was 0.201 z-score.

In the case of CAAATGAGGAACTCATGCGG, the binding signal stood at 5.49 z-score with PU.1 (IVT), 6.26 z-score in assay [1] and 1.56 z-score in assay [2].

Consider AAAAAGAGGAAGGGACCCAA, for which the binding signal with PU.1 (IVT) was 5.29 z-score; in assay [1] it was 6.25 z-score; in assay [2], 2.26 z-score.

CTGAACAGGAAGTGGGTGGA: the binding signal with PU.1 (IVT) came out at 4.48 z-score; in assay [1], 4.84 z-score; in assay [2], 5.22 z-score.

As to TAAAGGAGGAAGTGGCTTAG, the binding signal in the assay with PU.1 (IVT) is 5.97 z-score; in assay [1], 6.55 z-score; in assay [2], 3.28 z-score.

In the case of CAAATGAGGAACTGATGCAG, the values for the binding signal (in the assay with PU.1 (IVT); in assay [1]; in assay [2]) were 5.72 z-score, 6.2 z-score and 2.07 z-score, respectively.

As for GATAGCAGGAAGTGGGCAGA, the binding signal amounted to 2.58 z-score with PU.1 (IVT), 2.76 z-score in assay [1] and 3.55 z-score in assay [2].

As to CCTGAGAGGAAGTTGGCTTA, the binding signal with PU.1 (IVT) was 4.53 z-score; in assay [1], 4.74 z-score; in assay [2], 2.89 z-score.

On to ACTAAGAGGAAGTGGTATCT, for which the figures for the binding signal (in the assay with PU.1 (IVT); in assay [1]; in assay [2]) were 5.71 z-score, 6.32 z-score and 3.31 z-score, respectively.

Consider AAAAGAAGGAAGTGATAGCA, for which the figures for the binding signal (in the assay with PU.1 (IVT); in assay [1]; in assay [2]) were 5.41 z-score, 5.65 z-score and 2.35 z-score, respectively.

In the case of TGAAAGAGTAAGTGCAACCA, the binding signal came out at 0.422 z-score with PU.1 (IVT), 0.187 z-score in assay [1] and 0.121 z-score in assay [2].

As for CAAATGAGGAATTGATGCGG, the binding signal was determined as 2.8 z-score with PU.1 (IVT), 2.61 z-score in assay [1] and 0.747 z-score in assay [2].

In the case of AGGAAGAGGAACTGTCTATG, the results for the binding signal (with PU.1 (IVT); in assay [1]; in assay [2]) were 4.07 z-score, 4.31 z-score and 2.54 z-score, respectively.

Take AGAAAGAGGAACTACAAGGC: the binding signal with PU.1 (IVT) turned out to be 6.87 z-score; in assay [1], 6.75 z-score; in assay [2], 2.91 z-score.

In the case of GACAGGAGGAAGTGTGAACC, the binding signal amounted to 3.49 z-score with PU.1 (IVT), 3.24 z-score in assay [1] and 2.31 z-score in assay [2].

For GAAAACAGGAAGTCCCATAC, the binding signal in the assay with PU.1 (IVT) was 7.27 z-score; in assay [1] it was 7.17 z-score; in assay [2], 4.53 z-score.

Turning to TTTGGGAGGAAGTGGGCACT, the figures for the binding signal (in the assay with PU.1 (IVT); in assay [1]; in assay [2]) were 3.32 z-score, 3.12 z-score and 2.73 z-score, respectively.

Take AGTGAGAGGAAGTGACTTGA: the figures for the binding signal (in the assay with PU.1 (IVT); in assay [1]; in assay [2]) were 4.54 z-score, 4.69 z-score and 3.12 z-score, respectively.

In the case of TAAATGAGGAAGTGCTCCAT, the binding signal in the assay with PU.1 (IVT) turned out to be 8.21 z-score; in assay [1], 7.41 z-score; in assay [2], 3.42 z-score.

Turning to CCAGAGAGGAAGTGTTTGAT, the binding signal with PU.1 (IVT) came out at 4.5 z-score; in assay [1], 4.3 z-score; in assay [2] it was 3.09 z-score.

Consider GACAACAGGAAGTGGGAGTT, for which the values for the binding signal (in the assay with PU.1 (IVT); in assay [1]; in assay [2]) were 4.38 z-score, 4.52 z-score and 5.17 z-score, respectively.

Turning to TCTTAGAGGAACTGAAATGG, the results for the binding signal (with PU.1 (IVT); in assay [1]; in assay [2]) were 2.19 z-score, 2.48 z-score and 0.558 z-score, respectively.

As for AGAAAAAGGAAGTCGGCCTC, the values for the binding signal (in the assay with PU.1 (IVT); in assay [1]; in assay [2]) were 5.49 z-score, 5.54 z-score and 2.7 z-score, respectively.

Regarding AAGGGGAGGAAGTACAGCCC, the binding signal with PU.1 (IVT) was 3.46 z-score; in assay [1], 3.11 z-score; in assay [2], 2.1 z-score.

In the case of TAAATGAGGAAGTGCTCAAG, the figures for the binding signal (with PU.1 (IVT); in assay [1]; in assay [2]) were 7.81 z-score, 7.45 z-score and 3.65 z-score, respectively.

Turning to ATAAAGAGGAAGTGTCAGGG, the binding signal worked out at 6.78 z-score in the assay with PU.1 (IVT), 7.07 z-score in assay [1] and 3.35 z-score in assay [2].

For the sequence GAAAAGAGGAAGTCAAACTA, the binding signal was 8.35 z-score with PU.1 (IVT), 7.32 z-score in assay [1] and 4.06 z-score in assay [2].

Turning to GGGAAGAGGAAGTGCTCCTG, the figures for the binding signal (with PU.1 (IVT); in assay [1]; in assay [2]) were 6.28 z-score, 6.72 z-score and 3.62 z-score, respectively.

For AGAAAGAGGAAGACTAGTGT, the binding signal with PU.1 (IVT) is 3.78 z-score; in assay [1], 3.73 z-score; in assay [2] it was 1.46 z-score.

AAAATGAGGAAGTAATTCCT: the values for the binding signal (with PU.1 (IVT); in assay [1]; in assay [2]) were 8.66 z-score, 7.46 z-score and 4.12 z-score, respectively.

In the case of ACAAACAGGAACTGTGCCCC, the binding signal with PU.1 (IVT) came to 2.92 z-score; in assay [1] it was 3.35 z-score; in assay [2], 1.69 z-score.

Consider GCAAGGAGGAAGTGCCATGA, for which the values for the binding signal (with PU.1 (IVT); in assay [1]; in assay [2]) were 4.49 z-score, 5.27 z-score and 2.65 z-score, respectively.

On to TGTAAGAGGAAGTGCAACCA, for which the binding signal was 5.84 z-score in the assay with PU.1 (IVT), 6.32 z-score in assay [1] and 3.38 z-score in assay [2].

With CAATAGAGGAAGTGGCAGTG, the binding signal was found to be 6.24 z-score with PU.1 (IVT), 6.27 z-score in assay [1] and 3.36 z-score in assay [2].

On to GAGGGGAGGAAGTGAGGAGG, for which the binding signal with PU.1 (IVT) came to 2.67 z-score; in assay [1], 2.73 z-score; in assay [2], 2.42 z-score.

TGAAAGAGGAAATGGGAGAT: the binding signal with PU.1 (IVT) was found to be 3.56 z-score; in assay [1], 4 z-score; in assay [2] it was 2.77 z-score.

Take CGAAAGGGGAAGTGCTAAAC: the figures for the binding signal (with PU.1 (IVT); in assay [1]; in assay [2]) were 6.93 z-score, 7.05 z-score and 3.52 z-score, respectively.

With ACTGGGAGGAAGTCACAGGG, the results for the binding signal (in the assay with PU.1 (IVT); in assay [1]; in assay [2]) were 2.56 z-score, 2.82 z-score and 2.08 z-score, respectively.

In the case of TTGAAGAGGAAGTTTTACTT, the binding signal with PU.1 (IVT) worked out at 5.32 z-score; in assay [1], 3.98 z-score; in assay [2], 2.55 z-score.

For TAAATGAGGAAGTGCACTTG, the binding signal with PU.1 (IVT) is 7.75 z-score; in assay [1], 7.42 z-score; in assay [2] it was 3.56 z-score.

Regarding CAATTCAGGAAGTGTGGCAA, the binding signal with PU.1 (IVT) was determined as 4.09 z-score; in assay [1], 4.42 z-score; in assay [2] it was 3.12 z-score.

Consider AAACAAAGGAACTGGCTAGA, for which the binding signal with PU.1 (IVT) came to 0.473 z-score; in assay [1], 1.21 z-score; in assay [2], 0.692 z-score.

With CAGAAGAGGAAGTCAGGCAG, the binding signal in the assay with PU.1 (IVT) was 5.16 z-score; in assay [1] it was 6.24 z-score; in assay [2], 2.89 z-score.

For AAAAAGAGGAAGTCCTATTT, the binding signal with PU.1 (IVT) was determined as 8.54 z-score; in assay [1], 7.4 z-score; in assay [2], 4.28 z-score.

With AAAATGAGGAAATGAGGTTT, the binding signal in the assay with PU.1 (IVT) amounted to 5.58 z-score; in assay [1] it was 5.85 z-score; in assay [2], 2.48 z-score.

With GCAAAGGGGAAATGAGTTTT, the figures for the binding signal (with PU.1 (IVT); in assay [1]; in assay [2]) were 3.59 z-score, 3.06 z-score and 2.38 z-score, respectively.

Turning to ACTTTGGGGAAGTGAAGACC, the binding signal with PU.1 (IVT) was found to be 4.3 z-score; in assay [1] it was 4.71 z-score; in assay [2], 1.58 z-score.

Take AGAAAGAGGAAGGGGAGGTT: the results for the binding signal (with PU.1 (IVT); in assay [1]; in assay [2]) were 3.89 z-score, 4.72 z-score and 1.83 z-score, respectively.

For GATAAGCGGAAGTCCTCTGT, the binding signal with PU.1 (IVT) turned out to be 6 z-score; in assay [1], 6.48 z-score; in assay [2] it was 4.34 z-score.

In the case of TGGAGAGGGAAGTGGGGCTT, the values for the binding signal (with PU.1 (IVT); in assay [1]; in assay [2]) were 2.84 z-score, 2.94 z-score and 1.35 z-score, respectively.
